Whole data set: some 33,000 sequences, median “E-score (-0.5 to 0.5)” near -0.04, cut for the highest 2% near 0.36. This is one part of the list.
target: T1, Hmlalpha2 (UniProt P0CY09); experiment: PBM E-score (8-mer binding enrichment) (E-score (-0.5 to 0.5)); higher = stronger / more preferred TF binding; most listed sequences are background and not binding sites; settings: protein concentration: 200 nM; construct: GST-full length
T1 sequence: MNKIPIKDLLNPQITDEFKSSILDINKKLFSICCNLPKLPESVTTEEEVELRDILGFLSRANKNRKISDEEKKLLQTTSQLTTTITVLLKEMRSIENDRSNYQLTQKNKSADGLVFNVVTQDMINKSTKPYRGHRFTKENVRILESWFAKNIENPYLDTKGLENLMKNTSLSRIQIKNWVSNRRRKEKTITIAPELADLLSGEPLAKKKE
In short: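 Yeast transcription factors carrying a GST tag, as full-length proteins or DNA-binding domains, were produced by PURExpress in vitro transcription/translation. About 100-200 nM protein was applied to universal all-10-mer Agilent arrays, double-stranded by primer extension on fresh or once-stripped slides. Bound protein was detected with fluorescent anti-GST, and scans were normalised with masliner. The Universal PBM Analysis Suite gave each ungapped eight-base word, pooled with its reverse complement, an E-score, a modified Wilcoxon-Mann-Whitney statistic.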

Sequence	PBM E-score
ATGGACGG	-0.00065
GGAGTCGA	-0.309
CAGATCAC	0.0461
CGTACGAC	0.0253
CGTAATTA	0.389
CGATGGAG	-0.202
GTGATTCA	0.107
CGGCGGGC	-0.316
ACGCTGGG	-0.262
GGTAGTTA	0.0255
CGCCTAGC	-0.3
GCACGCAA	-0.0466
AGTAACAA	0.288
CGCCTACA	0.117
CTACAGAG	0.184
GGAATATA	0.0296
ATGGTGGC	-0.22
AAAAGTGA	0.0299
GGAACGGA	-0.224
ATATTTAC	0.345
GAGTCATA	-0.0489
CATGCAAG	0.0696

Sequence	PBM E-score
CACGAGGA	-0.0217
CCGAGCTA	-0.0825
TATGTAGA	0.424
AGATGAGC	-0.0974
ATCCTGTA	0.284
GGCATTAC	0.186
TAGAGACA	0.00169
AGCAAATG	-0.149
GAGATCTC	-0.29
CTGCGTCC	-0.16
CAATCGGG	-0.0401
GGCTTTAA	-0.021
CGCGTCAA	0.289
ATCGTGAG	-0.131
ATACTAAA	0.137
CGAATCTC	-0.0403
AGCCAAAC	-0.0808
ATGCCTAA	-0.0628
CTAACGTC	0.122
CACGAACG	-0.00018
CGCTGGAG	-0.303
ATCTACCA	0.166

Sequence	PBM E-score
ACCGCCTG	-0.093
GAGGACTA	-0.113
GAGTGACA	0.116
CCCACCAC	-0.191
GATGGTGA	-0.208
AACCTCCA	-0.404
GACTGCGA	-0.14
GCGGGAAC	-0.264
AGGGTCGC	-0.121
GAACGAGC	0.162
AATAAGCA	0.114
ACGCCAAG	-0.105
CCGGGCTC	-0.203
AATTATCA	0.286
AGGACACG	-0.0228
ACTGGGGA	-0.197
ATACGCAA	0.347
AACTGGAC	-0.0972
AGTCTTGA	-0.0757
AAGAAGCG	-0.116
CGATTCAC	-0.0647
AACTTTCA	0.101

Sequence	PBM E-score
CTGACCGA	-0.32
GCTCTCCA	-0.226
AAAGAACC	-0.0552
GCAGCGTA	0.0131
AAAGGCCT	-0.0831
AGTCACAC	-0.0935
TACTGATA	0.148
AGATGTAG	0.094
CTTTTTGC	-0.112
ATTTAGAC	0.128
GCGCGTAA	0.416
CTAGTTCA	0.0551
AGATCGGC	-0.0697
AGGGATAG	-0.265
CAAGCTGG	-0.141
TAGATAGA	-0.131
TCATTCGA	0.0932
ATTGCAAC	-0.0311
CCAACGCC	-0.0515
AAACCGGG	-0.229
